The supplement of paper PMC11417369
± gives the standard deviation of the averaged measurements. This is one part of the list.

system: PfAP2-EXP AP2 domain (GST-tagged); assay: gcPBM binding intensity (ln(normalized median fluorescence intensity)); higher = stronger DNA binding
Procedure, shortened: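 Plasmodium falciparum DNA-binding domains carrying a GST tag were expressed in E. coli and applied for 1 h, at about 25 μg on average, to an Agilent 4 × 180k array. The array held primer-extended double-stranded 36-bp intergenic genomic probes together with negative controls, and binding took place in 1× PBS with 1% milk, 0.2 mg/ml BSA, 0.5% salmon testes DNA and 0.03% Triton X-100. An Alexa488 anti-GST antibody detected bound protein, and the array was scanned at 488 nm. Binding intensity is taken as the highest Masliner-normalised natural-log median intensity across replicate spots of either probe orientation.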

Sequence | gcPBM binding intensity (ln)
CTTTGTGGTATAGATACACACTATATTAATATGAAC [CACACA_site7081] | 8.55 ± 0.44
AAATAAAAAGGGTGCACACAAAAATATATATATATA [CACACA_site1728] | 10.5 ± 0.6
AAATAGTTGTTATGGGTGCAAACCACATATATATAA [GTGCAC_site9428] | 8.64 ± 0.099
AATATATACATACATACATGCACATATATATATATA [TGCATGCA_site393] | 9.82 ± 0.42
ATTTGTTTAAGTCACGAACACACATATATCATCAAT [CACACA_site985] | 8.62 ± 0.33
ATTATTTACCACAACACACAAATATTTACCAATCAT [CACACA_site5472] | 8.7 ± 0.41
AGGCCTTTTAGTATTTCACACACGTAAATGTGTATA [CACACA_site8284] | 8.6 ± 0.55
AATATAATATATTGCACACAAAAAGTGAATTATTCT [CACACA_site1684] | 8.75 ± 0.3
GTTTATTAGGAATTATGTACACAGTTTTATAAAGAA [XGTACX_site2994] | 8.68 ± 0.18
ACATTGAATAAATAATGTACATATATAATATATATT [XGTACX_site95] | 8.34 ± 0.23
AAATTAAATGTAAGCACACATAAATTATACGCATAT [CACACA_site3335] | 8.6 ± 0.38
TTGCAGTATTTCGGAACACACAAACATAAATATGTA [CACACA_site5307] | 8.37 ± 0.39
TATAATAATCCACAAGCACACACACCCACATATATA [CACACA_site8343] | 8.78 ± 0.39
AGTAGTCTGGAGAAAAGTACACAGTATCTGGTAGCT [XGTACX_site2544] | 8.41 ± 0.42
GATCTTTCACATATATATATAAAGGATATTATGGTA [CACACA_negctrl_site522] | 8.37 ± 0.4
AAATATTATTCATTTTGTACGTATAATTTTTAATGA [XGTACX_site3509] | 8.71 ± 0.32
TTATTACACAAATGGTGTACTTTTGAGGAACCAAAA [XGTACX_site4279] | 8.31 ± 0.3
ATTATATTATATTATACATGCATAATATTATATAAA [TGCATGCA_site647] | 8.46 ± 0.092
TTTTCATTCTTTTCCTTTGATTTACAATAGTATATT [GTGCAC_negctrl_site687] | 8.65 ± 0.53

Sequence | gcPBM binding intensity (ln)
TCATTATATTATTCTTGTACTTATATCCTTTTTTGA [XGTACX_site5320] | 8.74 ± 0.3
TAAAAGTTCACCTGTACACACATATATATCTGTACA [CACACA_site5019] | 8.68 ± 0.36
AAAAAATAAAAGTGGGGTACATGTCATTATGTGCAT [XGTACX_site3753] | 8.86 ± 0.4
CAAAATATTATCATGATGCACTTTACACTCTAAGGT | 8.59 ± 0.21
TATTTTTAAAAGTTAACAGAAAAAATATAAATAAAT [GTGCAC_negctrl_site295] | 8.5 ± 0.81
TGGTATATACGACACACACACATATGTATAAATATA [CACACA_site6561] | 8.94 ± 0.41
TGTAATAAAATAATTAGTACACATATATGTATATTT [XGTACX_site5896] | 8.31 ± 0.29
TACCATAATCAATGCACACATAACAAAATATTATTA [CACACA_site2722] | 8.38 ± 0.32
TTTTCCCTTTTTTCCGCACACAATAAAATAAATAAA [CACACA_site2807] | 8.71 ± 0.32
ATATATATATAATGTTGTACGTTTTATTCTCCCATT [XGTACX_site8071] | 9.72 ± 0.23
TTTATCATGAACAGAAGTACATTTATATCAATGTCT [XGTACX_site6470] | 8.35 ± 0.39
ATATATATATATTTTACACACAATGGAGAAAAAAAT [CACACA_site644] | 9.75 ± 0.26
TTTACACTTTTTTTTGTACACACTAAAAAGATTAAC [CACACA_site3933] | 8.62 ± 0.35
TTTTTCAGAAAAGAAACACACATATAAATATTTATA [CACACA_site7170] | 8.47 ± 0.46
AAAAAAAAAAAAAAAACACACAAGGATCAGATAGAT [CACACA_site7743] | 8.48 ± 0.099
TGTTGTTACCTATATACACACATATAAATATTATAG [CACACA_site7180] | 8.65 ± 0.47
AATATTATGATATTATGTACATATTAAAAGCACCAC [XGTACX_site6236] | 9.24 ± 0.21
AGGGCATATATATATGCACACATACATATATACATG [CACACA_site9282] | 8.42 ± 0.38
AAAAAAAAAAAAAAAAAAACTAATATAATAAAAATA [TGCATGCA_negctrl_site150] | 8.6 ± 0.057

Sequence | gcPBM binding intensity (ln)
AAAAAAATAATATAATATTAAATCTTAGTTAATAAA [GTGCAC_negctrl_site658] | 7.92 ± 0.33
TATGCATATACACAAGCACACATATATATATATATA [CACACA_site8266] | 10.1 ± 0.32
TTTTTTTTTTTTTACACACCCAAATCACATACATAT [CACACA_site6089] | 8.59 ± 0.44
TTTTTTTTTTTTTTTTCTTTTTTTTTTTTAAATAAG [XGTACX_negctrl_site418] | 7.88 ± 0.32
TATAATAAATATACTGGTACACAAATATATATATTT [XGTACX_site7741] | 8.48 ± 0.32
AACATCTTATCATCATGTACGAAGCAGTTTTATAAG [XGTACX_site2490] | 8.59 ± 0.52
ATATTATATTTACATAGTACACTATATGTATATATA [XGTACX_site2101] | 8.26 ± 0.13
TGTAATTTTTTACGTTGTACATATATTAACAATATA [XGTACX_site3991] | 8.5 ± 0.31
TAAAAAAGAAAAAGAGCACACAAAAATATTTAACCT [CACACA_site8885] | 8.71 ± 0.59
TATATATTTATATATTGTACACTCTTATGTAGTGTA [XGTACX_site210] | 8.29 ± 0.3
TTACATATTTTCATTTGTACATATTCATTTTTTTTC [XGTACX_site6988] | 8.71 ± 0.47
AAATAACCCACGTGCATGCACTTCAATAACTGAACT | 10.1 ± 0.27
ATTTTTATATTTAATACACACATAAAATCATACCAT [CACACA_site23] | 8.65 ± 0.41
ATGTCAGGGAAAAAAACACACAAGAGTATGATATGT [CACACA_site2180] | 8.7 ± 0.35
TAACCAAAAAAAAATATTTAAAATAAATATATATAT [CACACA_negctrl_site1516] | 9.425 ± 0.021
ATAACATACATAACAACACACAATATTTATAGGTAT [CACACA_site6243] | 8.73 ± 0.57
TTTAGTTCATACTATGCACACTACGTATATTTTTAA [CACACA_site5484] | 8.7 ± 0.26
TATTTTCTCTTAAAAAGTACTCATATATACATTTAT [XGTACX_site7748] | 8.38 ± 0.15
ATTAATAAGAAGAAAAGTACAAAACAAAAAGATATA [XGTACX_site7473] | 9.03 ± 0.5
